# Reference: PubChem BioAssay AID504333 (National Center for Advancing Translational Sciences (NCATS), 2011)
# The whole screen tested about 360,000 compounds, of which about 16,000 (4.4%) were called active. The shares of active, inactive and inconclusive entries below differ from those in the screen. Calls come from the whole dose curve; as a rule, active = well fitted inhibition curve with a large enough effect; inconclusive = small, poorly fitted or top-dose-only effect; inactive = no such curve, though single readings can be large or run the other way. Potencies beside an inconclusive call are fits to weak or partial responses and may not hold up.
# Target: Bromodomain adjacent to zinc finger domain protein 2B (Homo sapiens) (UniProt Q9UIF8)
# UniProt Q9UIF8, sequence (Q9UIF8 whole entry, looked up, the tested form may be a part): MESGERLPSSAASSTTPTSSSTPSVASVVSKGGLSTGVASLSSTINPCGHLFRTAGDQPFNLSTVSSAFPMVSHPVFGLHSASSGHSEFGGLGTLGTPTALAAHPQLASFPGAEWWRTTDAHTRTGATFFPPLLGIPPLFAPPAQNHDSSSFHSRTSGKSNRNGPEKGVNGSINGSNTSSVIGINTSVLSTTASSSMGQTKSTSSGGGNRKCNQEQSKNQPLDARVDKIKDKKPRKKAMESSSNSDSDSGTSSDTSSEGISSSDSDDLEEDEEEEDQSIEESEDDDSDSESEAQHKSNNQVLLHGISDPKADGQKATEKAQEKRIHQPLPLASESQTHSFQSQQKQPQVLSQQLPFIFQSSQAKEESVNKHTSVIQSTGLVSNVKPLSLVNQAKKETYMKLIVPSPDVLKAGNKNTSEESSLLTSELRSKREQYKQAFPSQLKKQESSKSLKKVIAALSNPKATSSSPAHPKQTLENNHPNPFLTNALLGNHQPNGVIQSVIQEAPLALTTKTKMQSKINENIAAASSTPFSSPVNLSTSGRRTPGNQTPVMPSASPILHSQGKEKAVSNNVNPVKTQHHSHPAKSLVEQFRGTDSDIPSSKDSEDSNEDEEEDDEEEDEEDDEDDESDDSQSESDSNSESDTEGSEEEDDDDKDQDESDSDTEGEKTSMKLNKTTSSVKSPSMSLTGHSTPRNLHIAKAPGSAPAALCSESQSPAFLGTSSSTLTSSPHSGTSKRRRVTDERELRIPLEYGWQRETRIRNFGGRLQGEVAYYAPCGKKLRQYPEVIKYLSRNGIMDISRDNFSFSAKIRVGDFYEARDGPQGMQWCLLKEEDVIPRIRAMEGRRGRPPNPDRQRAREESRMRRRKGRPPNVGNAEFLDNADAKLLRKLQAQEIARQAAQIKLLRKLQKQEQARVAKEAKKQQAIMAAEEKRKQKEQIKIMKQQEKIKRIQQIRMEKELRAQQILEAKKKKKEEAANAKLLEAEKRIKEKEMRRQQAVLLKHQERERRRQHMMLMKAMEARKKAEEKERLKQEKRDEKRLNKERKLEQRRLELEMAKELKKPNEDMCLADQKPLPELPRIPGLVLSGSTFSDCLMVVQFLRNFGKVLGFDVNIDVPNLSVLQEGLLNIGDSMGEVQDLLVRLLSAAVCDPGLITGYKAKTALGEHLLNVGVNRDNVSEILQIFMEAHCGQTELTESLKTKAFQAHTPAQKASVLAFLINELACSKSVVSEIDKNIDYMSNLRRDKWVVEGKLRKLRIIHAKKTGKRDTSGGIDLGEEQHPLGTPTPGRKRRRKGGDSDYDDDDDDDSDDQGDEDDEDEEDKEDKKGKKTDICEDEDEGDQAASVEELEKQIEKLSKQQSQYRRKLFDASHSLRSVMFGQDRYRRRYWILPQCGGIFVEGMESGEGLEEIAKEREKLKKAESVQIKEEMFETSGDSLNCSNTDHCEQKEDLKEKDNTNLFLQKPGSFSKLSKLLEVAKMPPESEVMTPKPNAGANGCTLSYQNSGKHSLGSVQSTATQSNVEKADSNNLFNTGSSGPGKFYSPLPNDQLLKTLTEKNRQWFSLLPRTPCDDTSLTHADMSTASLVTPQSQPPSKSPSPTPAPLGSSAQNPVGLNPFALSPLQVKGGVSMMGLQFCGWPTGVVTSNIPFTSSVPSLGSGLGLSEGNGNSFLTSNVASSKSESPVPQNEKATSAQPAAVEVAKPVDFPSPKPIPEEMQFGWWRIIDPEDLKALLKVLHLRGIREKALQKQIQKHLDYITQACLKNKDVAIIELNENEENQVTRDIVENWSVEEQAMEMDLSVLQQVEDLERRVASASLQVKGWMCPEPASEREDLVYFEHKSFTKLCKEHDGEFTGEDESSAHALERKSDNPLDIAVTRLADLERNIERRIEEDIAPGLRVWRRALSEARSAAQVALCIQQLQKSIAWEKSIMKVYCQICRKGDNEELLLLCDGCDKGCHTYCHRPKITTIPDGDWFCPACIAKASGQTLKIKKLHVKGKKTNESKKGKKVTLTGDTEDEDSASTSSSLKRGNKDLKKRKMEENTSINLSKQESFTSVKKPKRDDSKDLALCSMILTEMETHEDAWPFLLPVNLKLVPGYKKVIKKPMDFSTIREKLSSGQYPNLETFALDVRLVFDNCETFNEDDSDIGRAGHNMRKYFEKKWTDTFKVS
# Assay: qHTS Assay for Inhibitors of BAZ2B; note: nearly all actives have a fitted effect of over 60% in size
# Conditions: AlphaScreen BAZ2B-H3K14Ac peptide displacement; series mostly up to 114 µM
# Procedure, shortened: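 Complex of BAZ2B and biotin-H3K14Ac (50 nM apiece) forms over 30 min at RT, then faces library compounds up to 110 uM for another 30 min; AlphaScreen beads added, 20 min dark incubation, luminescence read.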
# Potency is the fitted concentration of half-maximal effect; tags give direction and shape of the fitted curve.
row,Compound,Potency
1,CCn1c(=O)cc(SCC(=O)N(C)Cc2ccccc2)c2ccccc21,"inconclusive: 7.94 µM [inhibitor, single point]"
2,Cc1cc(N2CCC(C)CC2)nc2ccc(NC(=O)CCC(=O)N3CCN(c4cccc(C(F)(F)F)c4)CC3)cc12,inactive
3,COc1cccc(NC(=O)c2cn(C3CCCCC3)c(=O)c3c2c2ccccc2n3C)c1,inactive
4,O=C(c1ccc(Cl)c([N+](=O)[O-])c1)N(Cc1cccc(Cl)c1)C1CCS(=O)(=O)C1 (stereo not given),"inconclusive: 89.1 µM [inhibitor, single point]"
5,Cc1cc([N+](=O)[O-])ccc1NCc1ccc2c(c1)OCCO2,"inconclusive: 22.4 µM [inhibitor, full curve]"
6,COc1ccc(OC)c(CNCCNC(=O)c2ccco2)c1,active: 56.2 µM
7,COC(=O)c1ccc(Cn2c(SCc3cccc(C)c3)nc3ccncc32)cc1,inactive
8,CCOC(=O)N1CCN(C(=O)c2ccccc2NC(C)=O)CC1,inactive
9,CC(C)Cc1ccc(/C(=N/O)C(=O)O)s1,"inconclusive: 56.2 µM [inhibitor, partial curve]"
10,CCOC(=O)c1c(S(=O)(=O)NCC(=O)N2CCN(c3ccccc3OC)CC2)c(C)n(C)c1C,"inconclusive: 79.4 µM [inhibitor, single point]"
11,CC(C)CC(=O)NC(=S)N1CCN(c2ccc([N+](=O)[O-])cc2Cl)CC1,"inconclusive: 44.7 µM [inhibitor, partial curve]"
12,Cc1ccc(S(=O)(=O)CCC(=O)OCC(=O)c2cc(C)ccc2C)cc1,inactive
13,CCNc1nc(NC(C)C)nc(NC(C)(C)C)n1,inactive
14,CCN(CC)C(=O)CSC1=C(C#N)C(c2cccs2)C=C(C)N1 (stereo not given),inactive
15,COc1ccc(CN2CCCC(C(=O)Nc3cccc(-n4cnnn4)c3)C2)c(C)c1C (stereo not given),"inconclusive: 79.4 µM [inhibitor, single point]"
16,O=C1C(Cl)=C(NCCN2CCCCC2)C(=O)c2ccccc21,"inconclusive: 50.1 µM [inhibitor, partial curve]"
17,CCCCn1c(CNC(=O)c2ccc(OC)cc2)nnc1SCC(=O)Nc1ccccc1,inactive
18,CCN(CC)c1ccc(NC(=O)CCS(=O)(=O)c2ccc(Br)cc2)c(C)c1,active: 11.2 µM
19,O=C(O)c1cccc(NC(=S)NC(=O)C(c2ccccc2)c2ccccc2)c1,"inconclusive: 15.8 µM [inhibitor, full curve, poor fit]"
20,Cc1ccccc1OCC(=O)NNC(=O)CSc1nc(N)cc(N)n1,inactive
21,Cc1[nH][nH]c(=O)c1N=Nc1ccccc1C#N,"inconclusive: 70.8 µM [inhibitor, partial curve]"
22,Cc1cc(C)c(C(=O)Cn2cnc3cc([N+](=O)[O-])ccc3c2=O)cc1C,inactive
23,O=C1CN(CC(=O)NC2CCCc3ccccc32)CCN1 (stereo not given),inactive
24,COc1ccc(-c2cc(C(C)=O)c(C)n2CCC(=O)NCc2ccc(F)cc2)cc1,active: 79.4 µM
25,Cc1ccc(C)c(NC(=O)CN2C(=O)COc3ccc(S(=O)(=O)N4CCCC4)cc32)c1,inactive

row,Compound,Potency
1,Cc1cccc(Oc2c([N+](=O)[O-])c(=O)n(C)c3ccccc23)c1,"inconclusive: 50.1 µM [inhibitor, partial curve]"
2,Cc1cc(C(=O)NCc2cccnc2)no1,inactive
3,COc1ccc(NC(=O)CSc2nnc(Cc3cccn3C)n2CCc2ccccc2)c(OC)c1,active: 50.1 µM
4,Cc1ccc(SCC(=O)c2cc(C)c(OC(=S)N(C)C)c(C)c2)cc1,"inconclusive: 39.8 µM [inhibitor, single point]"
5,CN(C)c1ccc(NC(=O)CN2CCC(C(=O)c3ccc(F)cc3)CC2)cc1,"inconclusive: 89.1 µM [inhibitor, single point]"
6,CCOc1ccc(-n2c(=O)c3c(C)c(C(=O)N(C)C)sc3n(CC(=O)Nc3c(C)cc(C)cc3C)c2=O)cc1,inactive
7,Oc1oc(-c2ccccc2)nc1C=NCc1ccccc1,"inconclusive: 0.708 µM [inhibitor, full curve, poor fit]"
8,COc1ccccc1N1CCN(Cc2nc3ccccc3[nH]2)CC1,inactive
9,CC(=O)Nc1sc(N/N=C\c2ccco2)nc1-c1cccs1,"inconclusive: 50.1 µM [inhibitor, partial curve]"
10,CCN(CC)CCNC(=O)c1ccc2c(c1NCCO)C(=O)c1ccccc1C2=O,active: 39.8 µM
11,CCOc1ccc(S(=O)(=O)N2CCN(c3ccccc3)CC2)cc1C(N)=O,"inconclusive: 89.1 µM [inhibitor, single point]"
12,O=c1[nH]c(-c2ccccn2)nc2sc(-c3ccccc3)cc12,active: 44.7 µM
13,C/C(=N\NC(=S)NC1CCCCC1)c1ccc(O)cc1,"inconclusive: 39.8 µM [inhibitor, partial curve]"
14,CN1C(C(=O)Nc2ccc(F)cc2F)=CC(c2cccs2)=NS1(=O)=O,inactive
15,Cc1ccc2c(=O)cc(C(=O)Nc3nnc(C)s3)oc2c1,"inconclusive: 79.4 µM [inhibitor, single point]"
16,Cc1ccc(-c2nn3c(C)nnc3c3ccccc23)cc1S(=O)(=O)NC(C)c1ccccc1 (stereo not given),"inconclusive: 89.1 µM [inhibitor, single point]"
17,COC(=O)COc1ccc(C(c2c(C)[nH][nH]c2=O)c2c(C)[nH][nH]c2=O)cc1,inactive
18,CC1(C)Cc2cccc(Oc3cc(NN4CCCCC4)c([N+](=O)[O-])cc3[N+](=O)[O-])c2O1,"inconclusive: 8.91 µM [inhibitor, full curve]"
19,N#CCCN=C(NS(=O)(=O)c1ccccc1)c1ccccc1,inactive
20,COc1cc2nc(N(CCCN(C)C)C(=O)c3ccc(S(=O)(=O)N4CCc5ccccc54)cc3)sc2cc1OC,"inconclusive: 44.7 µM [inhibitor, partial curve]"
21,C=CCOCCN1C(=O)C2C3C=CC(C2C1=O)C1C2C(=O)N(CCOCC=C)C(=O)C2C31 (stereo not given),"inconclusive: 70.8 µM [inhibitor, single point]"
22,CCCCC1=CC2=C(c3ccco3)C(=O)C(C)(OC(=O)c3ccc(OC)cc3)C(=O)C2=CN1CCOC (stereo not given),active: 39.8 µM
23,Cc1c(C(=O)c2ccc(N(C)C)cc2)c2ccccn2c1CCC#N,"inconclusive: 56.2 µM [inhibitor, partial curve]"
24,CCOC(=O)C1(CC2CCCCO2)CCN(Cc2cc3ccccc3[nH]2)CC1 (stereo not given),"inconclusive: 50.1 µM [inhibitor, partial curve]"
25,N#Cc1nc(COc2ccccc2)oc1N1CCN(c2cccc(Cl)c2)CC1,"inconclusive: 2 µM [inhibitor, full curve]"

row,Compound,Potency
1,Cc1ccc(C(=O)CC2(O)C(=O)N(C)c3ccccc32)s1 (stereo not given),inactive
2,COc1cccc(Sc2ccccc2CN(C)C)c1,inactive
3,COC(=O)/C=C1\S/C(=N/NC(=O)c2ccc(OC)cc2)NC1=O,inactive
4,O=C(/C=C/c1cccc([N+](=O)[O-])c1)Nc1cc(C(=O)O)cc(C(=O)O)c1,"inconclusive: 5.62 µM [inhibitor, full curve, poor fit]"
5,CCCc1nnc(NC(=O)CCC(=O)N2CCN(c3ccccc3)CC2)s1,"inconclusive: 100 µM [inhibitor, partial curve]"
6,CC(C)(C)C1CCC(=NNC(=S)Nc2cccnc2)CC1 (stereo not given),"inconclusive: 35.5 µM [inhibitor, partial curve]"
7,CC(C)(C)OC(=O)NCCCCCNC(=O)c1[nH]cnc1C(=O)Nc1nccs1,active: 31.6 µM
8,Cn1cc(C(c2ccccn2)c2cn(C)c3ccccc23)c2ccccc21,active: 35.5 µM
9,C/C(N)=C(/C#N)C(=O)CSc1nnnn1-c1ccc(C)cc1C,inactive
10,COc1ccc(CCNc2oc(COc3cccc(C)c3)nc2C#N)cc1OC,"inconclusive: 14.1 µM [inhibitor, full curve]"
11,CCCNC(=O)c1cnn2c(C(F)F)cc(-c3ccccc3)nc12,inactive
12,CCOC(=O)Cn1c(S(=O)(=O)Cc2ccc(Cl)cc2)nc(-c2ccccc2)c1-c1ccccc1,inactive
13,CC[n+]1c(/C=C(\C)OC)sc2ccccc21,active: 56.2 µM
14,CN(C)c1cc[n+](CC(=O)Nc2ccc([N+](=O)[O-])cc2Cl)cc1,inactive
15,COc1cc2c(cc1OC)C(C)N(C(=O)Cc1ccc(C(F)(F)F)cc1)CC2 (stereo not given),inactive
16,CCNC(=S)NNC(=O)c1cc(-c2cccc(OC)c2)nc2ccccc12,inactive
17,Cc1nc([N+](=O)[O-])c(Br)n1CC(=O)c1ccccc1,inactive
18,CC(Oc1ccccc1)C(=O)N1CCN=C1SCc1ccccc1F (stereo not given),inactive
19,Cc1cnc(=O)[nH]c1SCc1ccc([N+](=O)[O-])cc1,"inconclusive: 79.4 µM [inhibitor, single point]"
20,Cc1cc(O)c(Oc2cc(C)cc(O)c2O)c(O)c1,"inconclusive: 56.2 µM [inhibitor, partial curve]"
21,COc1ccc(OC)c(NC(=O)c2cccnc2Sc2cc(C)ccc2C)c1,"inconclusive: 79.4 µM [inhibitor, single point]"
22,CCOC(=O)c1c(C)oc2c1cc(NS(=O)(=O)c1ccc(C)cc1)c1ccccc12,inactive
23,CCOc1ccc(NC(=O)CN(C)C(=O)Cc2c(C)nc3ccccc3c2C)cc1OCC,"inconclusive: 70.8 µM [inhibitor, single point]"
24,Cc1ccc(N2CCN(C(=O)c3c(C)oc4ncnc(N5CCCCC5)c34)CC2)c(C)c1,"inconclusive: 25.1 µM [inhibitor, partial curve]"
25,C=C(C)Cn1c(N2CCC(Cc3ccccc3)CC2)nc2c1c(=O)[nH]c(=O)n2C,"inconclusive: 50.1 µM [inhibitor, partial curve]"
